Antibody binding signal data for 40 sequences are collected here from the supplement of paper PMC10441789.

This is one part of the list. Antibody binding of pooled human sera (four to six donors per pool; dilution not stated) to peptides of the Trypanosoma cruzi antigen TSSA on microarrays. Quantile-normalised fluorescence in arbitrary units, mean of duplicate arrays; higher = more binding. No active / inactive call. The uninfected pools are read here as the healthy donors of the same country. The strongest signals lie near the top of the scale (about 60,000).

This assay deals with pooled sera of uninfected people, Mexico. Briefly: antibody binding signal (normalised fluorescence) (arbitrary fluorescence units); higher = stronger serum antibody binding to peptide. On the procedure: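 Microarray of 15-residue peptides over residues 30-55 of Trypanosoma cruzi TSSAII, each with 1 to 10 substitutions at naturally variable positions, probed with one serum pool per country.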
SGTDKKPATGETPSQ returned an antibody binding signal of 3380.

Sequence SGKEKKTATGGAPSQ had an antibody binding signal of 148. To TDNKTAAGGTPSPPG belongs 1200; to KKPATGGAPSPPGAS, 89.6; to KDKKPATGEAPSPSG, 94.9. In turn, KDNKAATGGTPSQPG had an antibody binding signal of 444.

Take SSTPPSGKENKPAAG: the antibody binding signal was found to be 275. Under SGTENKTAAGETPSP stands 209; under GTENKAATGETPSQS, 177.

In turn, STPPSGTENKTAAGG showed an antibody binding signal of 634.

TENKTATGGAPSPSG came in with an antibody binding signal of 549. In turn, PSGTDNKPAAGGTPS gave an antibody binding signal of 684. In the case of GTENKAATGGTPSPP, the antibody binding signal is 195.

Sequence GKEKKAATGETPSQP gave an antibody binding signal of 92.3. Under TEKKAAAGGAPSPSG stands 363. Regarding PPSGKDNKAATGEAP, the antibody binding signal was 125. The sequence DKKPAAGEAPSPSGA displayed an antibody binding signal of 95.3. The sequence GTDKKPAAGEAPSQS showed an antibody binding signal of 657.

DNKPAAGGAPSPSGA: the antibody binding signal came to 373.

TEKKAAAGGAPSPPG displayed an antibody binding signal of 222. To PPSGKDKKPAAGEAP belongs 79.1.

PPSGTEKKAATGEAP registered an antibody binding signal of 175. Under NKAAAGETPSPSGAS stands 470; under TISTPPSGKDKKAAA, 89. KTATGETPSQSGASS: the antibody binding signal was found to be 253. To GKDKKAAAGEAPSQP belongs 71. GKEKKPAAGGAPSQP gave an antibody binding signal of 84.2. Under PSGTDNKAATGGAPS stands 320. Regarding TPPSGKEKKPAAGGA, the antibody binding signal worked out at 87.8. As for TEKKTATGEAPSQSG, the antibody binding signal amounted to 264. Under TDNKAAAGGTPSQPG stands 739; under ENKAATGEAPSPSGA, 101; under KKTATGEAPSQSGAS, 117. GKDKKPATGEAPSPS: the antibody binding signal is 103. To KENKAAAGGTPSPSG belongs 74.1. Take TDKKPATGETPSQSG: the antibody binding signal turned out to be 1740. Sequence DKKAATGETPSPSGA came in with an antibody binding signal of 174. In turn, STPPSGKDKKAAAGE had an antibody binding signal of 94. To TISTPPSGKDNKTAA belongs 105; to TPPSGTDNKAATGEA, 167.
